Results: PubChem BioAssay AID651820 (National Center for Advancing Translational Sciences (NCATS), 2012)
Values joined by “and” are separate entries in the source; they are usually repeats but may differ in a detail not shown here. Equal entries are not always repeated. The campaign covered roughly 340,000 compounds. About 12,000 (3.5%) were called active. Inconclusive results, whose numbers are uncertain, are shown with a selection of clear calls. Calls follow the shape of the dose curve; as a rule, active = well fitted inhibition curve with a large enough effect; inconclusive = small, poorly fitted or top-dose-only effect, or another doubt; inactive = no such curve, though single readings can be large or run the other way. Where the call is inconclusive, the potency comes from a doubtful curve fit.
% is scaled to controls: 0 for no effect and ±100 for the full control effect; potency is read from the fitted curve at half-maximal effect; tags tell the direction and shape of the fitted curve.

Experiment: qHTS Assay for Inhibitors of Hepatitis C Virus (HCV)
Details: Huh7.5.1 HCVcc-Cre (HCVcc is cell-culture hepatitis C virus) infection, luciferase reporter, 44 h; activity change, negative = inhibition: at 41.8 µM (top of the series)
Procedure, shortened: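 Cells seeded at 1,000/well and cultured 4 h, then compounds added followed by HCVcc-Cre virus (~0.5 moi). After 44 h further culture, luciferase substrate was added, plates held 15 min at room temperature, and luminescence read for 15 sec.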
For `NNc1ccc(Cc2ccc(Cl)cc2Cl)nn1`, the Potency was inconclusive: 10 µM [inhibitor, partial curve]. In the case of `COc1ccc(N(Cc2ccccc2)S(=O)(=O)c2cccc(C(=O)NCC3CCCO3)c2)cc1` (stereo unspecified), the Potency is reported as inconclusive: 22.4 µM [inhibitor, single point]. With `Cc1sc2ncnc(SCC(=O)NC(=O)NCc3ccco3)c2c1C` the Potency was inconclusive: 1.26 µM [inhibitor, full curve, poor fit]. In the case of `COc1cc(/C=N/NC(N)=S)ccc1OCC(=O)Nc1ccc(C)c(C)c1`, the Potency is reported as inconclusive: 5.01 µM [inhibitor, full curve]. For `CSC1=C(C#N)C(=O)NC(c2ccc(Cl)cc2)S1` (stereo unspecified), the “activity change, negative = inhibition” value was inactive: 0.47%. In the case of `CCCN1CCN(C(=S)Nc2sc(CC)cc2C(=O)OC)CC1`, the Potency is reported as inconclusive: 14.1 µM [inhibitor, single point]. For `Clc1ccc(CNc2ncnc3[nH]ncc23)cc1Cl`, the “activity change, negative = inhibition” value was inactive: -18.7%. With `COc1ccc(-c2cccc(-c3cc(=O)oc4cc(OC)c(OC)c(OC)c34)c2)cc1` the Potency was inconclusive: 11.2 µM [inhibitor, single point]. With `O=C(CCSc1nc(-c2ccco2)cc(C(F)(F)F)n1)Nc1ccc2c(c1)OCO2` the Potency was inconclusive: 11.2 µM [inhibitor, partial curve] and inconclusive: 22.4 µM [inhibitor, single point]. For `Cc1cc(C)nc(SC2c3cccc4cccc(c34)C2NS(=O)(=O)c2ccccc2)n1` (stereo unspecified), the Potency was inconclusive: 14.1 µM [inhibitor, single point]. For `Cc1ccc(C(=O)/C=C\C(=O)c2ccc(C)cc2)cc1`, the “activity change, negative = inhibition” value was inactive: 8.72%. With `COc1ccccc1NC(=O)CSc1nnc(Cc2cccn2C)n1-c1ccc(F)cc1` the Potency was “inactive”. With `CCOC(=O)c1cn2nc(Oc3cccc(C(F)(F)F)c3)ccc2n1` the “activity change, negative = inhibition” value was inactive: -5.69%. In the case of `CC(C)[C@H](NC(=O)c1ccccc1)C(=O)OCC(=O)/C=C1/N(C)c2ccccc2C1(C)C`, the Potency is reported as inconclusive: 31.6 µM [inhibitor, single point]. For `CCc1noc(C)c1C(=O)Oc1ccc(N(C)S(=O)(=O)c2ccccc2)cc1`, the Potency was inconclusive: 2.82 µM [inhibitor, partial curve]. With `CC1CCC2(CC1)NC(=O)N(CC(=O)Nc1cccc(S(=O)(=O)N3CCCC3)c1)C2=O` (stereo unspecified) the Potency was inconclusive: 31.6 µM [inhibitor, single point]. In the case of `CCOC(=O)c1ccc(S(=O)(=O)Nc2cc(S(=O)(=O)Nc3ccc(OC)cc3)ccc2O)cc1`, the “activity change, negative = inhibition” value is reported as inactive: 9.05%. For `O=C(CNCCC1=CCCCC1)Nc1ccccc1N1CCCCCC1`, the Potency was inconclusive: 20 µM [inhibitor, single point]. With `CCCCCn1c(=O)[nH]c2cc(C(=O)NCCCN3CCC(C)CC3)ccc2c1=O` the Potency was active: 4.47 µM. For `c1ccc(-c2ccccc2OCCCCN2CCCCC2)cc1`, the Potency was inconclusive: 35.5 µM [inhibitor, single point]. In the case of `COCCNC(=S)Nc1cc2oc3ccccc3c2cc1OC`, the Potency is reported as inconclusive: 22.4 µM [inhibitor, partial curve, poor fit]. For `CCc1c(-c2ccccc2)nc(N)c(C#N)c1-c1cccs1`, the Potency was inconclusive: 12.6 µM [inhibitor, partial curve]. For `O=C(O)/C(=C\c1ccco1)NC(=O)c1ccc(Br)o1`, the “activity change, negative = inhibition” value was inactive: 6.9%. In the case of `COC(CN(C(=O)CCl)C(C(=O)NC1CCCCC1)c1ccccc1C)OC` (stereo unspecified), the Potency is reported as active: 10 µM. For `CC(C)(C)c1ccc(NC(=O)c2ccc(=O)[nH]n2)cc1`, the Potency was inconclusive: 0.501 µM [inhibitor, full curve]. In the case of `CCS(=O)(=O)N1CCC(C(=O)NCCc2ccc(C)cc2)CC1`, the “activity change, negative = inhibition” value is reported as inactive: 5.67%. In the case of `CC1CCN(CCCn2c(SCC(=O)Nc3ccccc3Cl)nc3ccccc3c2=O)CC1`, the Potency is reported as active: 11.2 µM. With `CCOc1ccc(-n2ccnc(SCC(=O)Nc3cccc(OC)c3)c2=O)cc1` the Potency was inconclusive: 2.51 µM [inhibitor, full curve]. With `CCC1CCCCN1C(=O)c1ccc([N+](=O)[O-])o1` (stereo unspecified) the “activity change, negative = inhibition” value was inactive: -20.8%. For `N#CCC(=O)N/N=C\c1cc(Br)ccc1OC/C=C/c1ccccc1`, the Potency was inconclusive: 25.1 µM [inhibitor, single point]. With `CCOC(=O)Cc1csc(NC(=O)Nc2ccc(OC(F)(F)F)cc2)n1` the Potency was active: 10 µM. With `Cc1ccsc1-c1nc(CSCC(=O)NCc2ccc3c(c2)OCO3)c(C)o1` the Potency was inconclusive: 15.8 µM [inhibitor, single point]. In the case of `CCc1nn(-c2ccccc2)c2c1-c1cc(OC)c(OC)cc1C1(N2)C(=O)Nc2ccccc21` (stereo unspecified), the Potency is reported as inconclusive: 31.6 µM [inhibitor, single point]. With `O=C1CSC(=Nc2ccc(O)cc2)N1c1ccc(O)cc1` the “activity change, negative = inhibition” value was inactive: 1.65%. With `COc1ccccc1N=Nc1ccc(O)c2ncccc12` the Potency was active: 2.24 µM. For `CCN1C(=O)[C@@H]2[C@@H](c3ccc(-c4ccc(Cl)c(Cl)c4)cc3)N3CCC[C@@]3(C(=O)OC)[C@@H]2C1=O`, the “activity change, negative = inhibition” value was inactive: -0.278%. In the case of `CCN(CC)S(=O)(=O)c1ccc2c(c1)CC(C(=O)N1CCCC1)N2C(C)=O` (stereo unspecified), the “activity change, negative = inhibition” value is reported as inactive: 16.3%. In the case of `Cc1cc2nc(-c3ccc(=O)[nH]c3)n(C)c2cc1C`, the Potency is reported as inconclusive: 31.6 µM [inhibitor, single point]. With `CCOCCCN(C)C1CCN(C(=O)c2oc3ccccc3c2NC(=O)COc2ccc(F)cc2)CC1` the Potency was inconclusive: 14.1 µM [inhibitor, single point]. With `CCn1cnc2scc(-c3ccccc3)c2c1=O` the Potency was inconclusive: 14.1 µM [inhibitor, single point]. In the case of `COc1cc(OCc2ccccc2)c(OC)c(OCc2ccccc2)c1`, the Potency is reported as active: 10 µM. In the case of `C/C(=N/NC(=O)c1ccc(C(C)(C)C)cc1)c1ccccn1`, the Potency is reported as active: 3.55 µM. With `Cc1ccc(C(=O)NCCN2C3=NC[C@H](C(C)C)N3C[C@H]2Cc2ccc(O)cc2)cc1Br` the Potency was inconclusive: 31.6 µM [inhibitor, single point]. With `COCCn1c(SCC(=O)Nc2ccc(NC(C)=O)cc2)nc2c([nH]c3ccccc32)c1=O` the Potency was inconclusive: 8.91 µM [inhibitor, partial curve, poor fit]. For `CCCN1C(=O)C(=O)c2cc(Cl)ccc21`, the Potency was inconclusive: 31.6 µM [inhibitor, single point]. For `Cc1ccc(S(=O)(=O)Nc2cccc3c2O[C@H](CN(C)Cc2ccc(-c4ccccc4)cc2)[C@@H](C)CN([C@H](C)CO)C3=O)cc1`, the Potency was inconclusive: 22.4 µM [inhibitor, single point]. For `O=C(C[n+]1ccc2ccccc2c1)c1ccc(NC(=O)c2ccccc2)cc1`, the “activity change, negative = inhibition” value was inactive: -13.5%. In the case of `O=C(Nc1ccc(Cl)c(C(F)(F)F)c1)c1ccncc1`, the “activity change, negative = inhibition” value is reported as inactive: -22.2%. For `O=Cc1c(-c2ccc(F)cc2)nc2ccccn12`, the “activity change, negative = inhibition” value was inactive: 14.4%. In the case of `Cc1ccc(/C=C2\C(=O)NC(=S)N(c3ccccc3F)C2=O)s1`, the Potency is reported as inconclusive: 31.6 µM [inhibitor, single point]. With `CC(C)NC(=O)c1ccccc1NC(=O)/C=C/c1ccc([N+](=O)[O-])cc1` the Potency was active: 11.2 µM. With `Cn1cccc1/C=N/NC(=O)c1cc2ccccc2cc1O` the Potency was inconclusive: 12.6 µM [inhibitor, single point]. With `COc1ccc(C2SCC(=O)N2c2ccc(C)cc2)cc1` (stereo unspecified) the “activity change, negative = inhibition” value was inactive: 14.4%. In the case of `CCC(=O)NC(c1cccs1)c1cc([N+](=O)[O-])c2cccnc2c1O` (stereo unspecified), the Potency is reported as inconclusive: 22.4 µM [inhibitor, single point]. In the case of `Cc1cc(C)c2c(N)c(C(=O)C(C)(C)C)sc2n1`, the “activity change, negative = inhibition” value is reported as inactive: 11.6%. For `COc1cc(-c2nc3ccccc3s2)ccc1O`, the Potency was inconclusive: 15.8 µM [inhibitor, single point]. With `COc1ccccc1CCNC(=O)c1cccc(NC(=O)CC2SC(N3CCCCC3)=NC2=O)c1` (stereo unspecified) the Potency was inconclusive: 10 µM [inhibitor, partial curve, poor fit]. With `Cn1c(C(=O)N2CCN(Cc3ccccc3)CC2)cc2c(=O)n(C)c3ccccc3c21` the Potency was inconclusive: 22.4 µM [inhibitor, single point]. In the case of `COc1ccc(NC(=O)CC(C)C)c([N+](=O)[O-])c1`, the “activity change, negative = inhibition” value is reported as inactive: 18%. For `CCc1nnc(NS(=O)(=O)c2ccc(NC(=O)/C=C/C(=O)O)cc2)s1`, the Potency was inconclusive: 31.6 µM [inhibitor, single point]. In the case of `N/C(=N\OC(=O)c1ccc(=O)n(Cc2ccc(Cl)cc2)c1)c1ccccn1`, the “activity change, negative = inhibition” value is reported as inactive: -18.1%. With `Oc1ccc(-c2nc3c4c(ncn3n2)-c2ccccc2CC42CCCC2)cc1` the Potency was inconclusive: 14.1 µM [inhibitor, partial curve]. With `O=C(CNC(=O)c1cccc(S(=O)(=O)N2CCc3ccccc32)c1)Nc1ccccc1Br` the Potency was inconclusive: 11.2 µM [inhibitor, single point]. For `CC(C)c1ccc(CN(C)C(=O)c2ccc(S(=O)(=O)NCc3ccco3)cc2)cc1`, the Potency was active: 6.31 µM. With `Cc1cc(NC(=O)c2cc(-c3ccccc3)on2)n(-c2ccccc2)n1` the Potency was inconclusive: 3.55 µM [inhibitor, partial curve]. For `CCCn1cnc2cc(NCc3cccs3)ccc21`, the Potency was inconclusive: 31.6 µM [inhibitor, single point]. For `CC(C(=O)NC1(C#N)CCCCC1)N(C)CC(=O)Nc1ccc(Cl)c(Cl)c1` (stereo unspecified), the Potency was inconclusive: 31.6 µM [inhibitor, single point]. For `CC(=O)Nc1ccc(S(=O)(=O)NCCS(=O)(=O)N2CCN(c3ccccc3)CC2)cc1`, the Potency was inconclusive: 10 µM [inhibitor, single point]. In the case of `O=[N+]([O-])c1cc(S(=O)(=O)NCCc2ccccn2)ccc1Cl`, the Potency is reported as inconclusive: 22.4 µM [inhibitor, single point]. For `CCSc1nnc(NC(=O)CCCOc2ccc(C)cc2)s1`, the “activity change, negative = inhibition” value was inactive: -10.2%. With `CCCCCCNC(=O)CC(c1ccccc1)c1cc(Br)ccc1O` (stereo unspecified) the Potency was inconclusive: 22.4 µM [inhibitor, single point].
